Experimental data reported in PMC6919601, “Identification of Plasmodium dipeptidyl aminopeptidase allosteric inhibitors by high throughput screening” (PLoS ONE, 2019).
Among all 110,000 compounds or so, about 230 (0.21%) showed an effect of 50% or more. Some of the results follow.

Molecular target: DPAP1 (Plasmodium falciparum, UniProt Q8IIJ9)
Test: primary screen, percent inhibition; read by cleavage of a fluorogenic dipeptide substrate; higher = more effect of the substance
Set-up: species or system P. falciparum D10 trophozoite lysates; single well
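Note: 30 min substrate incubation versus DMSO and 10 µM JCP410 controls.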

Chain of DPAP1 (Q8IIJ9 whole entry, looked up): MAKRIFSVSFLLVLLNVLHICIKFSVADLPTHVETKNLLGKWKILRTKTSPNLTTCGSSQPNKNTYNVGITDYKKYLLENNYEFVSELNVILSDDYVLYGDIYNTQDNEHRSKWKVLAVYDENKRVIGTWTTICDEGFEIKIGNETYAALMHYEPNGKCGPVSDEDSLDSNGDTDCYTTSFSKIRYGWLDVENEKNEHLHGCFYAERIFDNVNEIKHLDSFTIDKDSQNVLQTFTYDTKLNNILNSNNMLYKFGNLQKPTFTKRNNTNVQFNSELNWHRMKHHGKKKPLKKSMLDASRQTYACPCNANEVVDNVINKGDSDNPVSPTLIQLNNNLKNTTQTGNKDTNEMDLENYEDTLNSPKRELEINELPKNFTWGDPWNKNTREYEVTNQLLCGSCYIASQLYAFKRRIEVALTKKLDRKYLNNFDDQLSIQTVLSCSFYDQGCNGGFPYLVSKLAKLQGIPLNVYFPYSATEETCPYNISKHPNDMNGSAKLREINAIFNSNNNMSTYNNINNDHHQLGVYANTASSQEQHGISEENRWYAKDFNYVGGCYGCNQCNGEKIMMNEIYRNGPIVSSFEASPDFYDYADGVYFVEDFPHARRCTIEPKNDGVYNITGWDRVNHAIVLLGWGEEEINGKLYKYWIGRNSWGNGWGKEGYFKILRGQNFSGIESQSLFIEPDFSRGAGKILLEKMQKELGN

SMILES | % Inhibition @ 10 uM
O=C(c1ccccc1)N1CC(COc2ccccc2)OC(c2ccc3c(c2)OCO3)O1 (stereo not shown) | -1.98%
Cc1ccc(C)c(NC(=O)CSc2n[nH]c(CNc3ccccc3)n2)c1 | 0.673%
O=S(=O)(Nc1ccc(Oc2ccccc2)cc1)c1cccc2cccnc12 | 4.44%
Cc1cccc(NC(=O)c2ccc3c(c2)OCO3)c1C | -2.29%
Cc1cc2c(n1-c1ccc(C(=O)O)cc1)CCCC2 | -1.75%
Cc1cc(OC(C)C(=O)N(Cc2sccc2C)C2CCS(=O)(=O)C2)ccc1Cl (stereo not shown) | 0.569%
CCN1CCN(c2c(C(=O)c3ccc(OC)cc3)cnc3ccc(F)cc23)CC1 | -5.03%
CCCC/N=C(\C)C1=C(O)CC(C)(C)CC1=O | 3.72%
C=CCNC(=O)CCN1N=C(c2ccc(C)cc2)CCC1=O | -0.0542%
O=C(O)CCn1cncn1 | 0.0539%
COc1ccc(CCNC(=O)c2ccc3c(Cl)c4c(nc3c2)CCC4)cc1OC | -0.495%
CCCNC(=O)NC(=O)c1ccc2ccccc2c1 | -1.5%
CCOc1cc(C#N)c(NC(=O)c2ccc(F)cc2)cc1OCC | 0.231%
CCOc1ccccc1NC(=O)CN(c1cc(Cl)cc(Cl)c1)S(C)(=O)=O | -12.3%
CCOC(=O)c1cnn2c(C(F)(F)F)cc(C)nc12 | -3.53%
CCOC(=O)c1nnc(O)c2ccccc12 | -2.19%
CS(=O)(=O)C1=NSC2=NC(=O)/C(=C\c3ccco3)C(=N)N21 | -5.27%
C#CC(C)(CC)NC(=O)CCc1ccccc1 (stereo not shown) | 2.7%
O=C(NCc1cccs1)C(NS(=O)(=O)c1ccc(Br)s1)c1ccccc1 (stereo not shown) | -0.0508%
COc1ccccc1CNC(=O)c1ccc(CS(=O)c2ccccc2)o1 (stereo not shown) | -1.28%
CNc1nc2nc(O)c3c(c2s1)OC(N)=C(C#N)C3c1ccccc1 (stereo not shown) | 1.76%
COc1ccc(Cn2c(C(=O)O)c(CNCc3cccs3)c3ccc(OC)cc32)cc1 | -2.97%
O=C(Nc1nn[nH]n1)c1cc(-c2ccccc2Cl)nc2ccccc12 | -4.84%
CCOC(=O)Nc1ccncc1[N+](=O)[O-] | 1.44%
Cc1cc(C)n(-c2cc(N3CCCCC3)ncn2)n1 | -4.5%
Cc1ccc(-c2c(C(=O)O)n(Cc3ccccc3)c(=O)c3ccccc23)cc1C | 2.31%

SMILES | % Inhibition @ 10 uM
CC(Cc1ccccc1)NC(=O)C1COc2ccccc2O1 (stereo not shown) | -0.401%
COc1ccc(CC(=O)O/N=C(\N)c2cccnc2)cc1 | -3.06%
COCCN1C(=O)c2oc3ccc(C)cc3c(=O)c2C1c1ccc(OCC(N)=O)cc1 (stereo not shown) | -2.91%
CCCOCc1ccc(O)c2ncccc12 | -2.13%
O=C(c1cc(-c2ccccc2)[nH]n1)N1CCc2ccccc2C1 | 3.13%
O=C(NCCc1ccncc1)c1ccc(Br)o1 | 3.47%
COC(=O)C1=C(C)N(C)C(=O)NC1c1ccccc1 (stereo not shown) | 5.7%
Brc1ccccc1CN1CCN(C/C=C/c2ccccc2)CC1 | -3.71%
Cc1ccc(C(=O)N[C@@H](CC2CCCCC2)C(=O)NCC#N)s1 | -3.49%
CN(C)c1ccc(CNCc2cccs2)cc1 | -1.44%
O=C(c1ccccc1)N1CCN(c2ccc(F)cc2)CC1 | 3.47%
CCOC(=O)c1oc(-c2ccc(F)cc2)nc1C | -2.83%
CC(C)CC(C(=O)N1CCOCC1)N1Cc2ccccc2C1=O (stereo not shown) | -1.86%
CS(=O)(=O)C1CCCCC1S(=O)(=O)Cc1ccc(Cl)cc1 (stereo not shown) | -6.62%
O=C(CCn1c(=O)[nH]c2ccsc2c1=O)N1CC(=O)N(CCc2ccccc2)C(=O)C1 | -5%
COc1ccc(C(=O)Nc2ccc3c(c2)OCCO3)cc1Cl | 0.812%
O=C(c1ccco1)n1nc(-c2cccnc2)nc1NCc1cccs1 | -6.64%
O=C(Nc1cccc(Cl)c1)Nc1cc(Cl)cc(Cl)c1 | 4.54%
O=C(/C=C\Nc1ccc2c(c1)OCO2)c1cccs1 | -1.07%
COc1cccc(CN(C)C2CCN(C)CC2)c1 | 4.67%
CC1=NC2=C(C(=O)CC(C)(C)C2)C(c2ccccc2Cl)/C1=C(\O)OC(C)C (stereo not shown) | -3.6%
N#Cc1c(-c2cccc(F)c2)cc(-c2ccccc2)nc1SCC(=O)Nc1ccc(Br)cc1 | 7.11%
O=C(Nc1cccc(C(F)(F)F)c1)c1cccc(C(=O)Nc2cccc(C(F)(F)F)c2)n1 | -4.05%
COc1ccc(CC(=O)Nc2ccccc2Cl)cc1 | -4.35%
CCn1nc(C(=O)NCc2ccccc2)c(Cl)c1Cl | 0.343%
COc1cc(CN2CCN(Cc3ccncc3)CC2)cc(OC)c1OC | 3.86%

SMILES | % Inhibition @ 10 uM
CC(CCc1ccc(O)cc1)N(C)CCc1ccccc1 (stereo not shown) | -0.0953%
O=C(c1cccc(Br)c1)c1conc1C(=O)c1ccco1 | -0.132%
Nc1ccc(C(=O)N(Cc2ccccc2)Cc2ccccc2)c(C(=O)O)c1 | 0.145%
CCOc1ccc(C2/C(=C(\O)OCc3ccccc3)C(C)=Nc3nnnn32)cc1 (stereo not shown) | 2.93%
CCN(CC)c1ccc(NS(=O)(=O)c2ccc(NC(C)=O)cc2)cc1 | 1.37%
NC1=NC(=O)CC(c2ccccc2)N1 (stereo not shown) | 2.33%
COC(=O)/C=C(\C)NC(=O)c1ccccc1Cl | -4.77%
O=C1CC(N2CCN(Cc3ccc4c(c3)OCO4)CC2)C(=O)N1c1cc(Cl)cc(Cl)c1 (stereo not shown) | -7.75%
N#CCNC(=O)C(CCc1cc(F)ccc1F)NC(=O)OCc1ccccc1 (stereo not shown) | -1.82%
Cc1occc1C(=O)N1CCN(C/C=C/c2ccccc2)CC1 | 0.389%
Fc1ccccc1OCCCN1CCCC1 | 3%
CCN1CCN(C2=NC(=O)/C(=C/c3cc(OC)c(OC)c(OC)c3)S2)CC1 | 4.74%
CC(/N=C/c1c(O)[nH]c2ccccc12)c1ccccc1 (stereo not shown) | 4.74%
CCc1c(C)sc(NC(=O)Nc2cccc(Cl)c2)c1C(N)=O | -8.02%
O=C1c2ccccc2C(=O)N1CCSc1nnc(SCCN2C(=O)c3ccccc3C2=O)s1 | 4.42%
COc1ccc(C)cc1S(=O)(=O)N1CCN(C(c2ccccc2)c2ccccc2)CC1 | -1.1%
CCCCNC(=O)CN(c1cc(Cl)cc(Cl)c1)S(=O)(=O)c1ccccc1 | -7.31%
COc1ccc(C(=O)Nc2cccc(O)c2)cc1S(=O)(=O)N1CCOCC1 | -0.992%
CCCCOc1ccc(C(C)NC(=O)C2CCN(S(=O)(=O)CCC)CC2)cc1 (stereo not shown) | -3.58%
O=C(NCc1ccc(F)cc1)C1CCCN(S(=O)(=O)c2c[nH]cn2)C1 (stereo not shown) | -6.03%
CCCc1nnc(NC(=O)c2nc(S(=O)(=O)Cc3cccc(C)c3)ncc2Cl)s1 | -0.946%
O=Cc1cn(Cc2ccc(F)cc2Cl)c2ccccc12 | -2.72%
COc1ccc(-c2nc3s/c(=C\c4cc(OC)c(OC)c(OC)c4)c(=O)n3n2)cc1OC | 2.24%
COc1ccc2c(c1)C(SCC(=O)NC1CC1)CC(C)(C)O2 (stereo not shown) | -1.89%
Nc1nc(-c2ccc(Cl)c(Cl)c2)nc2c1c(=O)oc1ccccc12 | 6.08%
N=C1/C(=C\c2coc3ccccc3c2=O)C(=O)N=C2SC(CC(=O)N3CCCC3)=NN12 | -7.65%

SMILES | % Inhibition @ 10 uM
CCOc1ccc(CCNC(=O)CSc2nc(C)cc(COC)c2C#N)cc1OCC | -0.703%
Clc1cccc(OCCCCCCN2CCOCC2)c1 | 0.815%
O=C(CN(C1CCCCC1)S(=O)(=O)c1ccccc1)Nc1cccc2ccccc12 | -1.84%
Cc1ccc(CN2CC34C=CC(O3)C(C(=O)NCc3ccc5c(c3)OCO5)C4C2=O)cc1 (stereo not shown) | 4.06%
CCOc1ccc(C(=O)CCN(C)CC(=O)O)cc1 | 89.9%
O=C(NC1(C(F)(F)F)NC(=O)N(c2ccc(Cl)cc2)C1=O)c1ccccc1F (stereo not shown) | -12.1%
O=C(NCCCN1CCc2ccccc2C1)C1=Cc2sc3c(c2CS1)CCCC3 | 10.2%
COc1cccc(/C=C/c2nc(C#N)c(N3CCC(C)CC3)o2)c1 | -2.57%
CC1CCN(C(=O)CN2C(=O)c3cccc4cccc2c34)CC1 | -3.84%
O=C(O)/C(=C/c1cnc2ccccc2c1)NC(=O)c1ccccc1 | -13.5%
Cc1cccc(NS(=O)(=O)c2cc(Cl)ccc2Cl)n1 | -9.24%
NC(=O)c1ccc(N2CCOCC2)nc1 | 4.31%
CC1CCN(c2nc3c(-c4ccc(Cl)cc4)nnn3c3ccccc23)CC1 | 2.04%
CCOC(=O)C1=C(CN2CCC3(CC2)OCCO3)NC(=O)NC1c1ccc(C)cc1 (stereo not shown) | -7.28%
Brc1ccc(CN2CCN(c3ncccn3)CC2)s1 | -0.261%
CCOC(=O)c1c(C)[nH]c(C)c1S(=O)(=O)N1CCCCC1C (stereo not shown) | 3.1%
O=C(c1cccc(F)c1)c1coc2ccc(Br)cc2c1=O | -2.53%
CCOC(=O)C1=C(C)N(CC(C)C)C(=O)/C1=C\c1ccc(C(=O)O)cc1 | -0.169%
CCOCCCNC(=O)CCc1c(C)nc2c(c(C)nn2-c2ccc(C)c(C)c2)c1C | -6.03%
CCc1ccc(-n2nc(C)c3c(C(=O)NC4CCCCC4)cc(C)nc32)cc1 | 3.2%
CCOc1cccc(/C=C2/NC(=O)NC2=O)c1O | -1.25%
Cc1ccccc1N1OC2C(=O)N(c3ccccc3)C(=O)C2C1c1ccco1 (stereo not shown) | 2.7%
CC(=O)N1CCN(C/C(C)=C/c2ccccc2)CC1 | 3.68%
O=C(COc1ccc([N+](=O)[O-])cc1)c1ccc(Br)cc1 | -0.0369%
C=CCOc1ccc(/C=C2\C(=N)N3N=C(N4CCCCC4)SC3=NC2=O)cc1OC | 0.0579%
